For 20 sequences, binding signal results are on record in article PMC5700166.

Only a part is listed here, and it is no random draw. The list includes weakly bound sequences.

Experiment in all cases: protein-binding microarray (PBM)
What all share (conditions): PBM: ~300 nM protein, 6 mM HEPES pH 7.8, 80 mM KCl, 0.5 mM EDTA, 0.5 mM EGTA, 6% glycerol, 35 ng/ul poly-dIdC, 1% milk, 1 h, room temperature; Ap Aiptasia and Nv Nematostella (sea anemones) / Co Capsaspora / Aq Amphimedon (sponge) / Dm Drosophila / Hu human; RHD is the Rel homology domain; high values mean tight binding; most listed sequences are background and not binding sites; double strand, one strand shown

One assay has as its target T1, GST-Ap-NF-kB RHD (UniProt A0A913YAJ5).
T1 sequence: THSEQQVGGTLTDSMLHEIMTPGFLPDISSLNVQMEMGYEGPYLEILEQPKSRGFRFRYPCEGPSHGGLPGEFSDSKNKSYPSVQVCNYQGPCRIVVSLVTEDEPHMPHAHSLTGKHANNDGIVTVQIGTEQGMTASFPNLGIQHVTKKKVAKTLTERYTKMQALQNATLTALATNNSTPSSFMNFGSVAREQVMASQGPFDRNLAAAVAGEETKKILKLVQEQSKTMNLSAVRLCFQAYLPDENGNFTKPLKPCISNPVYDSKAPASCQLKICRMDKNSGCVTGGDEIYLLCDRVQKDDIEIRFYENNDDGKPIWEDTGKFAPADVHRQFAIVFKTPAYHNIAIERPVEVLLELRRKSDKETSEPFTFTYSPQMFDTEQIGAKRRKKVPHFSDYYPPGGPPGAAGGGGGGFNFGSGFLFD

Assay [1] deals with T2, GST-Nv-NF-kB (Cys allele) (UniProt E5G601).
T2 sequence: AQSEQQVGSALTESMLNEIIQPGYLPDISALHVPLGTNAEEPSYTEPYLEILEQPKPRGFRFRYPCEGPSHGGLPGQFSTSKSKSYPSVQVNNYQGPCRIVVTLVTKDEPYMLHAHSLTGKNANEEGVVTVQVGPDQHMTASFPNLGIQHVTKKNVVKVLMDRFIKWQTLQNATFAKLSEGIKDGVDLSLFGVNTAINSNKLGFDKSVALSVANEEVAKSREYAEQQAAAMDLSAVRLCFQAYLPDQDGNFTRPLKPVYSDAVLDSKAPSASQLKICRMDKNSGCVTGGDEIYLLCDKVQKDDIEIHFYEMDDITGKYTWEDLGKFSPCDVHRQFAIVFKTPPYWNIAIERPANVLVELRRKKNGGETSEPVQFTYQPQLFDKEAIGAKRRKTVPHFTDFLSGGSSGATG

In another assay the target is T3, GST-Co-NF-kB (UniProt F1ARL5).
T3 sequence: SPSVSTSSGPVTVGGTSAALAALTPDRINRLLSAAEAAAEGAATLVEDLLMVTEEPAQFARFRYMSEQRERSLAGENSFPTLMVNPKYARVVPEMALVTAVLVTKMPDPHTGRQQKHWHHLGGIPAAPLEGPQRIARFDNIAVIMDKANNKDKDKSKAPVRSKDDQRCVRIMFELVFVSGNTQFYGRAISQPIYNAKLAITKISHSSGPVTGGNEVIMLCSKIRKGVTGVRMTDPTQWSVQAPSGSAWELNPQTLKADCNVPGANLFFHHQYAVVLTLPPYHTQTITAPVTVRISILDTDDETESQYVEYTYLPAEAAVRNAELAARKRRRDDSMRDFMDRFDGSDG

In another assay the target is T4, GST-Dm-Relish (UniProt Q94527).
T4 sequence: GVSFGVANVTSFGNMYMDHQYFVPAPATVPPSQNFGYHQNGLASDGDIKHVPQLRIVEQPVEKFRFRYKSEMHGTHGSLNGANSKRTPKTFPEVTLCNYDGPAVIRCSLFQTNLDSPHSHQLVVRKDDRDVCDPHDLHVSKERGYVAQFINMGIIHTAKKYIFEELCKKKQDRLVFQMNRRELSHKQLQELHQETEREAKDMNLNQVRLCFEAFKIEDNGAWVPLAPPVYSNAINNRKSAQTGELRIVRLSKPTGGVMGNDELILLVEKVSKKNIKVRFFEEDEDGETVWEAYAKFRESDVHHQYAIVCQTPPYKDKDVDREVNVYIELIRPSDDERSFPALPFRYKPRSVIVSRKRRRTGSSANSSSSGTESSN

For another assay, the target named is T5, GST-Aq-NF-kB (UniProt A9Y5G7).
T5 sequence: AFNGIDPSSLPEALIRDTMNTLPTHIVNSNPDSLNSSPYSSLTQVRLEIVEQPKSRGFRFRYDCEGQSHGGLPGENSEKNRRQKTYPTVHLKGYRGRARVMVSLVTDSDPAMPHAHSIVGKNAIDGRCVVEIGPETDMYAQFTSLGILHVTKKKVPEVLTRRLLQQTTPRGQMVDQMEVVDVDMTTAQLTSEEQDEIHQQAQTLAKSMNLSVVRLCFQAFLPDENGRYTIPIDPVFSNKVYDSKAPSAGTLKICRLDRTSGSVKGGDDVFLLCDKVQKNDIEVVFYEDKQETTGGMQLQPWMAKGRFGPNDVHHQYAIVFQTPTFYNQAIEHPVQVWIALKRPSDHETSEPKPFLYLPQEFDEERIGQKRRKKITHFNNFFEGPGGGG

With “CCGATTAACATCAGGAAGATTCCTGATGTTAATCGGGTCTTGATTCGCTTGACGCTGCTG”, the binding signal was -0.371 z-score with GST-Ap-NF-kB RHD; -0.146 z-score in assay [1]; -1.33 z-score with GST-Co-NF-kB; 0.0334 z-score with GST-Dm-Relish; 0.695 z-score in the assay with GST-Aq-NF-kB.
Consider “CCGATTAACATCATCTTACGATATGATGTTAATCGGGTCTTGATTCGCTTGACGCTGCTG”, for which the binding signal in the assay with GST-Ap-NF-kB RHD was -0.717 z-score; in assay [1], -0.334 z-score; in the assay with GST-Co-NF-kB, -0.518 z-score; in the assay with GST-Dm-Relish, -0.382 z-score; in the assay with GST-Aq-NF-kB, -0.323 z-score.
The like results for “CCGATTAACATCAGAATTATATCTGATGTTAATCGGGTCTTGATTCGCTTGACGCTGCTG” were, in that order, -0.804 z-score, 0.0933 z-score, -0.37 z-score, -0.104 z-score and -0.268 z-score.
On to “CCGATTAACATCAAATTGGACGCTGATGTTAATCGGGTCTTGATTCGCTTGACGCTGCTG”, for which the binding signal is -0.711 z-score in the assay with GST-Ap-NF-kB RHD; -0.175 z-score in assay [1]; -0.14 z-score with GST-Co-NF-kB; -0.322 z-score with GST-Dm-Relish; -0.305 z-score with GST-Aq-NF-kB.
“CCGATTAACATCATTCACTTCTATGATGTTAATCGGGTCTTGATTCGCTTGACGCTGCTG”: the binding signal in the assay with GST-Ap-NF-kB RHD is -0.57 z-score; in assay [1], 0.0891 z-score; with GST-Co-NF-kB, 0.105 z-score; in the assay with GST-Dm-Relish, -0.25 z-score; with GST-Aq-NF-kB it was -0.532 z-score.
Turning to “CCGATTAACATCAGCAATAGGCTTGATGTTAATCGGGTCTTGATTCGCTTGACGCTGCTG”, the binding signal in the assay with GST-Ap-NF-kB RHD was -0.383 z-score; in assay [1], -0.0284 z-score; with GST-Co-NF-kB, -0.195 z-score; with GST-Dm-Relish, -0.282 z-score; with GST-Aq-NF-kB, -0.649 z-score.
The like results for “CCGATTAACATCACAAACTAGCCTGATGTTAATCGGGTCTTGATTCGCTTGACGCTGCTG” were, in that order, 0.61 z-score, -0.275 z-score, 0.114 z-score, -0.24 z-score and -0.396 z-score.
Consider “CCGATTAACATCAACACTGATCGTGATGTTAATCGGGTCTTGATTCGCTTGACGCTGCTG”, for which the binding signal was -0.427 z-score with GST-Ap-NF-kB RHD; -0.0331 z-score in assay [1]; 0.112 z-score with GST-Co-NF-kB; -0.0591 z-score with GST-Dm-Relish; -0.403 z-score with GST-Aq-NF-kB.
In the case of “CCGATTAACATCAGGAGATTCACTGATGTTAATCGGGTCTTGATTCGCTTGACGCTGCTG”, the binding signal in the assay with GST-Ap-NF-kB RHD was -0.00922 z-score; in assay [1] it was -0.255 z-score; with GST-Co-NF-kB it was -1.15 z-score; with GST-Dm-Relish, 0.631 z-score; with GST-Aq-NF-kB, 0.0741 z-score.
The like results for “CCGATTAACATCACGATCAGCAGTGATGTTAATCGGGTCTTGATTCGCTTGACGCTGCTG” were, in that order, -0.123 z-score, -0.401 z-score, 0.543 z-score, 0.0982 z-score and -0.326 z-score.
In the case of “CCGATTAACATCAATGGATTTTCTGATGTTAATCGGGTCTTGATTCGCTTGACGCTGCTG”, the binding signal is 0.305 z-score with GST-Ap-NF-kB RHD; -0.761 z-score in assay [1]; -0.0539 z-score with GST-Co-NF-kB; 0.505 z-score in the assay with GST-Dm-Relish; 0.303 z-score with GST-Aq-NF-kB.
The like results for “CCGATTAACATCAGTACCGCGAATGATGTTAATCGGGTCTTGATTCGCTTGACGCTGCTG” were, in that order, 0.791 z-score, 0.538 z-score, 0.0338 z-score, 0.363 z-score and 0.607 z-score.
For “CCGATTAACATCAACCTCGATTGTGATGTTAATCGGGTCTTGATTCGCTTGACGCTGCTG”, in that order: -0.371 z-score, -0.257 z-score, 0.293 z-score, -0.226 z-score and -0.819 z-score.
For “CCGATTAACATCATGTATTCCGATGATGTTAATCGGGTCTTGATTCGCTTGACGCTGCTG”, in that order: -0.214 z-score, -0.166 z-score, -0.0711 z-score, 0.456 z-score and -0.175 z-score.
Regarding “CCGATTAACATCATCCATACTCTTGATGTTAATCGGGTCTTGATTCGCTTGACGCTGCTG”, the binding signal with GST-Ap-NF-kB RHD is 0.159 z-score; in assay [1], 0.315 z-score; with GST-Co-NF-kB it was 0.284 z-score; with GST-Dm-Relish, -0.337 z-score; with GST-Aq-NF-kB, -0.31 z-score.
As to “CCGATTAACATCACTTGGCCCAATGATGTTAATCGGGTCTTGATTCGCTTGACGCTGCTG”, the binding signal was -0.0561 z-score with GST-Ap-NF-kB RHD; 0.0293 z-score in assay [1]; -0.714 z-score with GST-Co-NF-kB; -0.722 z-score with GST-Dm-Relish; -0.0106 z-score with GST-Aq-NF-kB.
On to “CCGATTAACATCATATATCGACGTGATGTTAATCGGGTCTTGATTCGCTTGACGCTGCTG”, for which the binding signal was -0.438 z-score in the assay with GST-Ap-NF-kB RHD; -0.361 z-score in assay [1]; -0.071 z-score in the assay with GST-Co-NF-kB; -0.102 z-score in the assay with GST-Dm-Relish; -0.395 z-score in the assay with GST-Aq-NF-kB.
For “CCGATTAACATCATCGGACCGGCTGATGTTAATCGGGTCTTGATTCGCTTGACGCTGCTG”, in that order: -0.0811 z-score, -0.957 z-score, -0.988 z-score, -0.948 z-score and -0.461 z-score.
In the case of “CCGATTAACATCACAGTCCAAACTGATGTTAATCGGGTCTTGATTCGCTTGACGCTGCTG”, the binding signal is -0.728 z-score in the assay with GST-Ap-NF-kB RHD; -0.785 z-score in assay [1]; -0.461 z-score with GST-Co-NF-kB; -0.395 z-score with GST-Dm-Relish; -0.337 z-score with GST-Aq-NF-kB.
The like results for “CCGATTAACATCAGAGTGCGAACTGATGTTAATCGGGTCTTGATTCGCTTGACGCTGCTG” were, in that order, -0.609 z-score, -0.208 z-score, -1.12 z-score, -0.735 z-score and -0.571 z-score.
